# From PubChem BioAssay AID588692 (Broad Institute, 2011)
# Screen size: about 360,000 compounds; about 830 (0.23%) were called active. The inconclusive results got no clear call from the source; some entries with a clear call stand among them for comparison.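 How the source made its calls: active means mean luciferase reporter signal, scaled so untreated is 0 and the glycosylation-blocking control 100, at or above a set limit in every replicate; inconclusive means mean reaches the limit but not every replicate does; inactive means mean below the limit.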
# Assay: increase of ERlucT glycosylation luciferase signal, primary screen, N-linked glycosylation inhibitor project, D54 ERlucT cells, luminescence, set 2 (AID 588692);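 further: luciferase carries N-glycosylation sites so blocking glycosylation raises the light; 0% = median of neutral control wells and 100% = median of 100 nM tunicamycin wells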
# Conditions: 24 h, at 12.5 µM, stronger effect = higher value, percent of 100 nM tunicamycin response
row,Structure (SMILES),reporter increase
1,COc1cccc(-c2cc(C(=O)Nc3cc(OC)c(OC)c(OC)c3)no2)c1,inconclusive: 25.1%
2,CCCCCCOc1ccc(/C=c2\s/c(=C(/C#N)C(=O)NCc3ccco3)n(-c3ccccc3)c2=O)cc1,inconclusive: 34.1%
3,COCCCN(C(C)=O)c1nc(-c2ccc(OC)cc2)cs1,inconclusive: 26.3%
4,O=C1C(Cl)=C(Nc2ccc3cn[nH]c3c2)C(=O)c2ccccc21,inactive: -21.6%
5,COc1ccc(CC(=O)N(Cc2ccccc2)c2ccc(C)cc2)cc1OC,active: 31.4%
6,O=C(Cc1ccc(O)cc1)NC1CCCCCC1,inactive: -3.86%
7,CCOC(=O)C1(Cc2cccc(OC)c2)CCCN(C(=O)c2cc(C)on2)C1 (centres undefined),inactive: -2.07%
8,N#CC1=C(c2ccccc2)/C(=C/c2ccccc2)OC1=O,inconclusive: 26.6%
9,C=CCn1c(SCC(=O)c2[nH]c(C)c(C(=O)OCC)c2C)nc2scc(-c3ccc(OC)c(OC)c3)c2c1=O,inconclusive: 25.7%
10,CCc1ccc2c(c1)/C(=C/C(=O)c1cccs1)C(=O)N2,inconclusive: 28.3%
11,CC(C(=O)NC1C=CS(=O)(=O)C1)N1C(=O)/C(=C\c2ccccc2)SC1=S (centres undefined),inactive: -5.89%
12,CC(=O)c1cccc(-c2ccnc3c2CC(C(=O)NCCc2ccccc2)O3)c1 (centres undefined),inconclusive: 26.9%
13,Cc1nc2ccc(N)cc2s1,inactive: 1.26%
14,CCOC(=O)c1ccc(/C=C2/C=C(c3ccccc3)N(c3ccc(Cl)c(C(=O)O)c3)C2=O)cc1,inconclusive: 28%
15,CN(C)S(=O)(=O)c1ccc(NC(=O)Cc2ccc(S(=O)(=O)N3CCOCC3)s2)cc1,inactive: -2.22%
16,O=C(NCCN1C(=O)S/C(=C\c2ccccc2Cl)C1=O)C1=COCCO1,inconclusive: 27.7%
17,CCn1c2ccccc2c2cc(NC(=O)COC(=O)c3cc(S(N)(=O)=O)c(Cl)cc3Cl)ccc21,active: 40.5%
18,CCOC(=O)/C(=C\c1ccccc1)C(=O)c1cc(C(C)=O)c(Nc2ccccc2)s1,active: 35.2%
19,COc1ccc(-c2nnc(Nc3nc4c(OC)cccc4s3)o2)c(OC)c1,inconclusive: 27.3%
20,NC(=O)c1ccsc1NC(=O)COC(=O)[C@@H]1CCCN1C(=O)c1cccs1,inactive: -0.865%
21,COc1cc(/C=C2\SC(=S)N(CCC(=O)N3CCCCC3)C2=O)cc(OC)c1OC,active: 69.7%

row,Structure (SMILES),reporter increase
1,CN(C(=O)CN1C(=O)NC(C)(c2cccc(Br)c2)C1=O)C1CCCCC1 (centres undefined),inactive: 1.15%
2,COc1ccccc1NC(=O)Cn1nnc(C(=O)NCc2cccs2)c1N,active: 28.5%
3,O=C(O)c1ccccc1NN=Cc1ccccc1,inactive: -2.28%
4,C#CC[N+](C)(C)CCCCCCCCCC,active: 40.3%
5,Cc1cccc(NC(=O)c2ccc([N+](=O)[O-])o2)c1,inconclusive: 27.2%
6,Cc1cccc([C@@H]2[C@@H]3C(=O)N(Cc4ccccc4)C(=O)[C@@H]3[C@]3(Cc4ccccc4)C(=O)N(c4ccccc4)C(=O)N23)c1,inconclusive: 33.7%
7,CCOc1ccc2nc(NC(=O)c3cccc(-c4cc5ccccc5oc4=O)c3)sc2c1,inconclusive: 30.3%
8,Cc1nn(-c2nc3ccccc3s2)c(N)c1Sc1ccc(F)cc1,inconclusive: 40.9%
9,CCOc1cc(/C=C(/C#N)C(=O)Nc2ccc(O)cc2)cc(Br)c1O,inconclusive: 25.6%
10,O=C(NCc1ccccc1Br)c1cccc2c1C(=O)c1ccc(-c3ccc(OC(F)(F)F)cc3)cc1S2(=O)=O,active: 156%
11,CN(C)c1ccc(C=c2c3ccccc3n3c2cc(-c2ccc(Cl)cc2)[n+]3C)cc1,inconclusive: 38.6%
12,COc1ccc(/C=N/NC(=O)c2[nH]nc3c2CCc2ccccc2-3)cc1OC,inconclusive: 25.2%
13,O=C(N/N=C/c1ccccn1)c1[nH]c2ccc([N+](=O)[O-])cc2c1-c1ccccc1,inconclusive: 26.4%
14,COc1cc(C(=O)N/N=C/c2ccccn2)cc(OC)c1OC,inconclusive: 25.4%
15,CC[n+]1ccc(/C=C/c2ccc(N(C)C)cc2)c2ccccc21,inconclusive: 45.9%
16,CC(=O)c1ccc(Nc2nc(-c3sc(C)nc3C)cs2)cc1,inconclusive: 29.6%
17,C[C@H](CO)N1C[C@H](C)[C@@H](CN(C)S(=O)(=O)c2ccccc2)Oc2c(NC(=O)Cc3ccccc3)cccc2C1=O,active: 27.7%
18,N#CC(=C1NC(=O)c2ccccc21)c1nc2ccccc2n1CCO,inconclusive: 26.7%
19,COc1cc(NC(C(=O)Nc2cccc(C(C)=O)c2)c2ccccc2)cc(OC)c1OC (centres undefined),active: 27.4%
20,C/C(=C\C(=S)Nc1ccccc1)Nc1ccc2ccccc2c1,inactive: 4.44%
21,Cc1ccc(-c2nn(-c3ccccc3)cc2NC(=O)CCl)cc1,inconclusive: 34.6%

row,Structure (SMILES),reporter increase
1,COc1cc(C2C(C#N)=C(N)Oc3cc(N)ccc32)cc(OC)c1OC (centres undefined),active: 31.8%
2,CCN1/C(=C/C=C/C=C/C=C/c2sc3ccccc3[n+]2CC)Sc2ccccc21,inactive: 5.63%
3,CS(=O)(=O)c1ccc(C(=O)OCc2nnc(-c3ccc(Cl)cc3)o2)cc1[N+](=O)[O-],inconclusive: 30.7%
4,CC(C)c1ccc2c(c1)C(c1ccc(N3CCOCC3)cc1)=NNC(c1cccs1)=N2,inactive: -2.71%
5,COC(=O)[C@H](C(C)C)N(Cc1ccccc1)S(=O)(=O)CCNC1CCCC1,inactive: -2.34%
6,Cc1c(NC(=O)CSc2cccc3cccnc23)c(=O)n(-c2ccccc2)n1C,inconclusive: 26.6%
7,Cc1cccc(C(=O)Nc2cc(S(=O)(=O)N3CCOCC3)ccc2N2CCCC2)c1,inconclusive: 31%
8,COc1cc(C2CC(=O)N(c3ccc(C)cc3)C(=O)C2)cc(OC)c1OC,inconclusive: 28.9%
9,CCOC(=O)C(=Cc1ccc(-c2ccsc2C(=O)OC)o1)C(=O)OCC,inconclusive: 26.4%
10,COc1ccc(NC(=O)c2ccc([N+](=O)[O-])o2)cc1,active: 30.9%
11,O=C1N/C(=C\c2ccc(O)cc2)C(=O)c2ccccc21,inconclusive: 27%
12,NC(=O)CC(NC(=O)c1ccc(Br)cc1)c1ccc(N2CCCCCCC2)c([N+](=O)[O-])c1 (centres undefined),active: 42.8%
13,CCOC(=O)/C=C/COc1ccccc1[N+](=O)[O-],inactive: 3.45%
14,Cc1ccc(OC(=O)CCC(=O)Oc2ccc(C)cc2C)c(C)c1,inconclusive: 25.8%
15,Cc1ccnc(NC(=O)Nc2ccc3c(c2)N(C)C(=O)CS3)c1,inconclusive: 28.4%
16,COc1ccc(/C=N/NC(=O)c2nc(-c3ccccc3)cc(-c3ccccc3)n2)cc1O,inconclusive: 29.1%
17,COC(=O)NC(=C(Cl)Cl)S(=O)(=O)c1ccccc1,active: 50.7%
18,Nc1ccc(C(=O)N2CCN(S(=O)(=O)c3ccc4c(c3)OCCO4)CC2)cc1[N+](=O)[O-],inconclusive: 27%
19,CCOc1ccc2cc(/C=C/C(=O)c3ccco3)c(Cl)nc2c1,inconclusive: 27.1%
20,CC[C@]12c3[nH]c4cc(CCC(=O)N(C)C)ccc4c3CCN1C(=O)[C@@H](CC(=O)NC/C=C(\C)CCC=C(C)C)C[C@@H]2C(=O)N1CCN(C(=O)c2ccco2)CC1,active: 31%
21,C[C@H](NC(=O)[C@H]1N2C(=O)c3ccccc3C2SC1(C)C)C(=O)N1CCC[C@H]1CO (some centres undefined),inconclusive: 52.8%

row,Structure (SMILES),reporter increase
1,Cc1ccc(C)c(-c2cc(C(=O)Nc3sc(C)c(C)c3C(N)=O)c3ccccc3n2)c1,inactive: -4.17%
2,Cc1nnc(NC(=O)c2cccc(NC(=O)C(C)C)c2)s1,inactive: 1.32%
3,Cc1cc(NC(=O)CSc2nc3c(C)cccc3cc2C#N)no1,inconclusive: 32.5%
4,COc1ccc(C(=O)/C=C2/C(=O)Nc3ccccc32)cc1,inconclusive: 26.8%
5,CCN1/C(=C/c2ccc3ccccc3[n+]2CC)C=Cc2ccccc21,active: 85.2%
6,CCCCNc1ccc(C(CC(N)=O)NC(=O)Cc2ccc(Br)cc2)cc1[N+](=O)[O-] (centres undefined),inconclusive: 25.9%
7,O=C(N/N=C/c1c(-c2ccccc2)[nH]c2ccccc12)c1cccnc1,inconclusive: 31.3%
8,Cc1ccc(NC(=O)Nc2cccs2)c(Cl)c1,inactive: 0.0065%
9,CC(C)CCC(CCNCc1ccccn1)c1ccc2c(c1)OCO2 (centres undefined),inactive: -0.14%
10,O=C(Cc1ccc(-c2ccccc2)cc1)NCc1ccccc1,inconclusive: 26.4%
11,CC(C)CCn1c(N)c(S(=O)(=O)c2cccs2)c2nc3ccccc3nc21,inactive: -1.67%
12,COc1cc(C(=O)N/N=C/c2ccc3c(c2)c2ccccc2n3C)ccc1O,active: 34%
13,Cn1c(=O)c([N+](=O)[O-])c(Cl)c2ccccc21,inconclusive: 37.5%
14,Cc1nn(C(C)(C)C)c(OC(=O)c2ccc3c(c2)OCO3)c1Sc1ccccc1,inconclusive: 26.2%
15,CCN(CC)c1ccc(/C=N/n2nnnc2N)c(O)c1,inconclusive: 26.8%
16,Clc1ccc(OCCSc2ncccn2)c2ccccc12,inactive: -1.7%
17,CN1CC(=O)N2C(c3ccc(Cl)cc3)c3[nH]c4ccccc4c3C[C@H]2C1=O (some centres undefined),inconclusive: 25.6%
18,O=C(COc1ccc(/C=N/NC(=O)c2cc3ccccc3o2)cc1Br)Nc1ccccc1,active: 61.8%
19,O=C1c2ccccc2C(=O)N1Cc1cnc(N2CCN(c3ccccc3)CC2)s1,inconclusive: 26.1%
20,NC(=O)CC(NC(=O)Cc1ccc(Cl)cc1)c1ccc(NC2CCCC2)c([N+](=O)[O-])c1 (centres undefined),active: 49%
21,CC(=O)Oc1ccc(-c2ccc(C(=O)OCC(=O)N(C)CC(=O)Nc3ccccc3Cl)cc2)cc1,inconclusive: 25.1%
